Measured values taken from article PMC6919601, “Identification of Plasmodium dipeptidyl aminopeptidase allosteric inhibitors by high throughput screening” (PLoS ONE, 2019).
Screen size: about 110,000 compounds; about 230 (0.21%) showed an effect of 50% or more. This is one part of the list.

Molecular target: DPAP1 (Plasmodium falciparum, UniProt Q8IIJ9)
Experiment: primary screen, percent inhibition; read by cleavage of a fluorogenic dipeptide substrate; higher = more effect of the substance
Set-up: species or system P. falciparum D10 trophozoite lysates; single well
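Also: 30 min substrate incubation versus DMSO and 10 µM JCP410 controls.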

Chain of DPAP1 (Q8IIJ9 whole entry, looked up): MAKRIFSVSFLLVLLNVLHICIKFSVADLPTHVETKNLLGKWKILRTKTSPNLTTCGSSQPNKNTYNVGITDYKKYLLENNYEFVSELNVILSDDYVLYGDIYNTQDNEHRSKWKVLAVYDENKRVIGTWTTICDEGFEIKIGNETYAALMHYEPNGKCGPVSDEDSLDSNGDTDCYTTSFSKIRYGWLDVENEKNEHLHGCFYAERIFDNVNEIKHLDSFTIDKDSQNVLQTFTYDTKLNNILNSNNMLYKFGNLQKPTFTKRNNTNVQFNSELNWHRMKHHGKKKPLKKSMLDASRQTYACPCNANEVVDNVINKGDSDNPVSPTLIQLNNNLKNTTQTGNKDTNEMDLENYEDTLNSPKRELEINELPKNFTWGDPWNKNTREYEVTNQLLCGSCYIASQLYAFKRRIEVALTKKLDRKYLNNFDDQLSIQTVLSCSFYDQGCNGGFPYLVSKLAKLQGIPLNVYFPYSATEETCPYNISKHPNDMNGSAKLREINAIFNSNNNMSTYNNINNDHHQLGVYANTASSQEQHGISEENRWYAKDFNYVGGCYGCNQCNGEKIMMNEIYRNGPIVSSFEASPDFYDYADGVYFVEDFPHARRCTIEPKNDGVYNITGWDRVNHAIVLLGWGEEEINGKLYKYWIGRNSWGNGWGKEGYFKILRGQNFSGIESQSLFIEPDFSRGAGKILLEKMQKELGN

First: CC1=CC(C)C2(CO)COC(c3cccnc3)C1C2C (centres unmarked)
Second: CC1CN(C(C)CCc2ccccc2)CC(C)O1 (centres unmarked)
The “% Inhibition @ 10 uM” value of the first is higher: 1.54% for the first, -3.74% for the second.

First: Cc1ccccc1S(=O)(=O)Cc1ccc(C(=O)NC(C)C)o1
Second: CCC(Oc1ccccc1)C(=O)Nc1ccc(C)c(C)c1 (centres unmarked)
The “% Inhibition @ 10 uM” value of the first is lower: -0.971% for the first, 8.28% for the second.

Going from `C=CCn1c(SCC(=O)N2CCCCC2)nc(O)cc1=O` to `CC1=C(C(=O)N2CCCCC2)C(c2ccsc2)C2=C(O)CCCC2=N1` (centres unmarked), the “% Inhibition @ 10 uM” value rises from -6.82% to 0.219%.

First: Cc1cccc2nc(-c3cccs3)c(NC3CCCCC3)n12
Second: Cc1cccc(OCC(=O)NC2CCCCC2)c1
The “% Inhibition @ 10 uM” value of the first is lower: -3.21% for the first, -2.74% for the second.

Going from `Nc1c(C(=O)C2CC2)sc2nc(-c3cccs3)cc(C(F)(F)F)c12` to `CC1CCN(C(=O)c2cnn3c(C(F)(F)F)cc(-c4cccs4)nc23)CC1`, the “% Inhibition @ 10 uM” value falls from 8.36% to 0.51%.

Going from `NC12CC3CC(C1)CC(O)(C3)C2` to `CC12CC3(C)CC(C(=O)O)(C1)CC(C(=O)O)(C2)C3`, the “% Inhibition @ 10 uM” value rises from -1.29% to 6.96%.

Going from `CCOC(=O)CN1CCn2c3c(c4cc(C)ccc42)CCCC31` (centres unmarked) to `CCOCCCNC(=O)c1ccc(CN2CC(=O)N3CCCCC3C2=O)cc1` (centres unmarked), the “% Inhibition @ 10 uM” value falls from 4.7% to -0.35%.

Going from `O=C(CCN1CCOCC1)N1N=C(c2ccccc2)CC1c1ccco1` (centres unmarked) to `O=C(/C=C/N1CCOCC1)c1cc2ccccc2o1`, the “% Inhibition @ 10 uM” value falls from 5.77% to 1.63%.

Going from `COc1ccc(C2CC(=O)Oc3c2c(=O)oc2ccccc32)cc1COc1ccc(F)cc1F` (centres unmarked) to `COc1cc(C2c3c(oc4ccccc4c3=O)C(=O)N2Cc2ccccc2)cc(Br)c1O` (centres unmarked), the “% Inhibition @ 10 uM” value falls from 2.77% to -1.33%.

Going from `COc1cc(NC(=O)c2cccs2)c2ncccc2c1` to `COc1ccc(Br)c(C(=O)Nc2noc3ccccc23)c1`, the “% Inhibition @ 10 uM” value falls from 1.27% to -2.85%.

Going from `C=CCSc1nc(=O)c2c(n1C)NC(=O)CC2c1cccc(O)c1` (centres unmarked) to `CCOc1cc(C2CC(=O)NC3=C2C(=O)CCC3)ccc1O` (centres unmarked), the “% Inhibition @ 10 uM” value rises from -1.11% to 1.76%.

Compared with `CCOCCCNC(=O)/C(C#N)=C/c1c(Oc2ccc(Cl)c(C)c2)nc2c(C)cccn2c1=O`, `CCOCCCNC(=O)CSc1nc2nc(C)c(Cc3cccc(C)c3)c(C)n2n1` is higher in “% Inhibition @ 10 uM” value: 2% for the first, 2.83% for the second.

Compared with `CCOc1ccc(/C=C2\SC(=O)N(Cc3ccc(F)cc3)C2=O)c(OCC)c1`, `CCOc1ccc(CCNC(=O)C2CC(=O)N(Cc3ccc(OC)cc3)C2)cc1OCC` (centres unmarked) is higher in “% Inhibition @ 10 uM” value: 0.131% for the first, 4.81% for the second.

First: CC(C)C(=O)N(Cc1ccccc1)c1cccc([N+](=O)[O-])c1
Second: O=C(CSc1nc2ccc([N+](=O)[O-])cc2s1)c1ccccc1
The “% Inhibition @ 10 uM” value of the first is higher: 1.21% for the first, -0.424% for the second.

Compared with `N#CC1=C(N)Oc2c(c(O)nc3ccccc23)C1c1ccc(F)cc1` (centres unmarked), `O=C(Cc1cccs1)Nc1ccc(-c2nc(O)c3ccccc3n2)cc1` is lower in “% Inhibition @ 10 uM” value: 0.76% for the first, -3.24% for the second.

Going from `COC(=O)c1c(C)c(O)nc2ccccc12` to `Cc1ccc(OCC(=O)Nc2ccccc2C)c(C)c1`, the “% Inhibition @ 10 uM” value rises from -3.41% to 2.82%.

Compared with `CCCn1nnnc1NCc1ccccc1OCc1cccs1`, `CCCn1cnc2cc(NCc3ccccn3)ccc21` is lower in “% Inhibition @ 10 uM” value: -3.63% for the first, -12.6% for the second.

First: O=C(Nc1ccc2ccccc2c1)C1CCCCC1
Second: CC(=O)NCCc1nc2ccccc2n1CCC1CCCCC1
The “% Inhibition @ 10 uM” value of the first is lower: -1.25% for the first, 2.73% for the second.

First: CN(C)c1ccc(NC(=O)Nc2ccc(Cl)cc2)cc1
Second: CCS(=O)(=O)Nc1ccc(Nc2ccccc2)cc1
The “% Inhibition @ 10 uM” value of the first is higher: 0.51% for the first, -7.08% for the second.

Compared with `O=c1[nH]c2ncccc2c(=O)n1Cc1ccccc1Cl`, `Cc1ccccc1NC(=O)CN1C(=O)S/C(=C\c2ccccn2)C1=O` is lower in “% Inhibition @ 10 uM” value: -1.66% for the first, -7.61% for the second.

Compared with `CC1(C)C2CCC(C2)C1CC1OCC(CN2CCCCC2)O1` (centres unmarked), `CC1CCCN(C2CN3CCC2CC3)C1` (centres unmarked) is lower in “% Inhibition @ 10 uM” value: -1.55% for the first, -3.82% for the second.

Compared with `COc1cccc(CNC2CCCC2)c1OC`, `Cc1cccc(N(CC(=O)NC2CCCC2)S(C)(=O)=O)c1C` is lower in “% Inhibition @ 10 uM” value: -2.22% for the first, -3.65% for the second.

Going from `CCN1CCN(C(=O)C2CCN(c3nnc(-n4c(C)ccc4C)s3)CC2)CC1` to `CCc1nnc(NC(=O)C2CCCN(c3ncnc4c3nc3n4CCCCC3)C2)s1` (centres unmarked), the “% Inhibition @ 10 uM” value falls from -2.37% to -4.77%.

Going from `CC1CCCCN1CCCNC(=O)Cn1ncc2ccc(Cl)cc21` (centres unmarked) to `Clc1ccccc1OCCCCCCN1CCCC1`, the “% Inhibition @ 10 uM” value falls from -1.11% to -4.01%.

Compared with `COC(=O)c1ccc(C2c3c(oc4ccccc4c3=O)C(=O)N2Cc2ccc3c(c2)OCO3)cc1` (centres unmarked), `CCc1ccc(CN(C(=O)c2cc(=O)c3ccccc3o2)C2CCS(=O)(=O)C2)cc1` (centres unmarked) is lower in “% Inhibition @ 10 uM” value: 5.3% for the first, 3.51% for the second.

Compared with `O=C(Nc1ccc(F)cc1)c1ccc(N2C(=O)c3ccccc3C2=O)cc1`, `O=C(Nc1ccc([N+](=O)[O-])cc1)c1ccc(-c2ccccc2)cc1` is higher in “% Inhibition @ 10 uM” value: -8.76% for the first, 2.62% for the second.

Compared with `Cc1ccc2nc(NC(=O)c3ccc(Cn4cc(Cl)cn4)o3)sc2c1`, `O=C(CSc1nc2ccc(NC(=O)c3ccccc3Cl)cc2s1)NC1CC1` is higher in “% Inhibition @ 10 uM” value: 2.1% for the first, 5.66% for the second.

Compared with `O=C(c1cc2nc(-c3ccco3)cc(C(F)(F)Cl)n2n1)N1CCSCC1`, `CN1CCN(C(=O)c2cc3c(s2)-c2ccccc2SC3)CC1` is lower in “% Inhibition @ 10 uM” value: 5.54% for the first, 1.15% for the second.

Compared with `O=C(Nc1ccc(Cl)c(C(F)(F)F)c1)C1CC(=O)N(c2ccccc2)C1` (centres unmarked), `COCCN1Cc2cccc(C(=O)NCCc3ccccc3)c2C1=O` is lower in “% Inhibition @ 10 uM” value: -1.06% for the first, -6.06% for the second.

First: Cc1cc(C)n(-c2nc3cc(Cl)c(Cl)cc3n3cnnc23)n1
Second: Cc1cccc2c1nc(-c1ccccc1)n1nnnc21
The “% Inhibition @ 10 uM” value of the first is lower: -6.58% for the first, 1.88% for the second.

First: CCOCCCNC(=O)C(c1ccc(C)cc1)N1CCOCC1 (centres unmarked)
Second: CC(C)C[C@H](NC(=O)c1cccc(-c2ccc(S(=O)(=O)N3CCOCC3)s2)c1)C(=O)NCC#N
The “% Inhibition @ 10 uM” value of the first is lower: -0.363% for the first, -0.207% for the second.

Going from `Brc1ccc(CN2CCc3c([nH]c4ccccc34)C2)s1` to `Brc1csc(CN2CCN(C/C=C/c3ccccc3)CC2)c1`, the “% Inhibition @ 10 uM” value falls from -0.828% to -3.65%.

Going from `COc1ccc2cc(C(C)OC(=O)N[C@@H](CC(C)C)C(=O)NCC#N)ccc2c1` (some centres unmarked) to `CC(C)C[C@H](NC(=O)c1ccc(S(C)(=O)=O)cc1)C(=O)NCC#N`, the “% Inhibition @ 10 uM” value rises from -8.26% to -1.41%.

Going from `CCCc1nnc2[nH]c(=O)n(C)c(=O)c2n1` to `COc1ccc(CCNC(=O)Cn2nnc(-c3ccc(S(C)(=O)=O)cc3)n2)cc1OC`, the “% Inhibition @ 10 uM” value rises from -1.11% to 1.03%.

First: CC1CCC(N(C)CC(O)c2ccccc2)CC1 (centres unmarked)
Second: Cc1noc(/C=C/N(C)C)c1S(=O)(=O)NCCN1CCC(Cc2ccccc2)CC1
The “% Inhibition @ 10 uM” value of the first is lower: -1.75% for the first, 2.8% for the second.

First: Cc1ccc(CNc2ncnc3onc(-c4ccc(Cl)cc4)c23)cc1
Second: CC(=O)Nc1cccc(Oc2ncnc3scc(-c4ccc(C)cc4)c23)c1
The “% Inhibition @ 10 uM” value of the first is lower: -3.95% for the first, 27.9% for the second.

Compared with `CNC(=O)N1CCN(C(=O)NC)CC1`, `CCOC(=O)c1c(NC(=O)C2C3CCC(O3)C2C(=O)O)sc2c1CCC(CC)C2` (centres unmarked) is higher in “% Inhibition @ 10 uM” value: -3.77% for the first, 3.94% for the second.

First: Nc1c(C(=O)c2ccc(Cl)cc2)sc2nc3c(cc12)CCCC3
Second: Cc1nc(CC(=O)Nc2sc3c(c2C#N)CCCC3)cs1
The “% Inhibition @ 10 uM” value of the first is higher: 4.66% for the first, -0.946% for the second.

Going from `Cc1ccc(-n2nc3c(c2NC(=O)c2c(F)cccc2F)CS(=O)(=O)C3)cc1` to `Cc1onc(-c2c(Cl)cccc2Cl)c1C(=O)Nc1ccc(S(N)(=O)=O)cc1`, the “% Inhibition @ 10 uM” value rises from 1.17% to 1.64%.

Going from `COc1cc(C(=O)NCC2CCCO2)cc(OC)c1OC` (centres unmarked) to `O=C(NC1CCCC1)c1cc(Cl)c(Cl)c(S(=O)(=O)N2CCOCC2)c1`, the “% Inhibition @ 10 uM” value falls from 2.45% to -4.66%.

Compared with `CCCN(CCC)c1ccc(C(c2c(C)n(C)n(-c3ccccc3)c2=O)c2c(C)n(C)n(-c3ccccc3)c2=O)cc1`, `O=C1/C(=C/c2ccco2)N=C(Oc2ccccc2)N1c1ccccc1` is lower in “% Inhibition @ 10 uM” value: 3.74% for the first, 1.31% for the second.

Going from `CC(C)(C)NC(=O)/C(=C\c1cccs1)NC(=O)c1cccs1` to `CC(C)(C)NC(=O)COCc1cc(-c2ccc(F)cc2)on1`, the “% Inhibition @ 10 uM” value falls from 0.385% to -0.501%.

Going from `CCN(CC)S(=O)(=O)c1ccc(NC(=O)c2ccc(C)c(Br)c2)cc1` to `COc1ccc(C(=O)CCC(=O)Nc2cccnc2)cc1`, the “% Inhibition @ 10 uM” value falls from -0.173% to -2.28%.

Going from `Clc1ccc(-c2nc3cc4ccccc4cc3o2)cc1` to `N#C/C(=C/c1cccs1)c1nc(-c2cc3ccccc3oc2=O)cs1`, the “% Inhibition @ 10 uM” value rises from -2.59% to 3.06%.

First: CC(=O)NC1C(OCCOc2ccc(Cl)cc2C)OC(CO)C(O)C1O (centres unmarked)
Second: CCCCOc1ccccc1C1C2=C(O)CC(C)(C)CC2=NC(C)=C1C(=O)OCC (centres unmarked)
The “% Inhibition @ 10 uM” value of the first is lower: 4.41% for the first, 10.2% for the second.

First: CCc1c(C#N)c(SCC(=O)N2CCc3cc(OC)c(OC)cc3C2)nc2c1C(=O)CC(C)(C)C2
Second: COCc1cc(C)nc(SCC(=O)Nc2ccc(C)c(C)c2)c1C#N
The “% Inhibition @ 10 uM” value of the first is higher: 17.8% for the first, -4.4% for the second.

Going from `COc1cc(C2C3=C(O)CCCC3=NC(C)=C2C(=O)N2CCOCC2)ccc1OCc1ccccc1` (centres unmarked) to `CC1=C(C(=O)Nc2ccccc2C)C(c2ccccc2C)C2=C(O)CC(C)(C)CC2=N1` (centres unmarked), the “% Inhibition @ 10 uM” value falls from 0.219% to -0.864%.

Compared with `COc1cccc(C2C3=C(O)CC(C)(C)CC3=NC3=C2C(=O)CC(C)(C)C3)c1` (centres unmarked), `Cc1ccc(C2Nc3ccccc3N=C3CC(C)(C)CC(O)=C32)o1` (centres unmarked) is lower in “% Inhibition @ 10 uM” value: -0.864% for the first, -8.3% for the second.

Compared with `Cc1ccccc1C1CC(=O)N2CN(C3CCCCC3)CSC2=C1C#N` (centres unmarked), `CCOC1O[C@@H](CS(=O)(=O)Cc2ccccc2OC(F)F)C(=O)N[C@H]1CC` (some centres unmarked) is lower in “% Inhibition @ 10 uM” value: 24% for the first, -3.49% for the second.

Compared with `COC(=O)c1cc(S(=O)(=O)NCC(C)c2ccccc2)c[nH]1` (centres unmarked), `Cc1cc(C)c(OCC(O)CNC(C)(C)CC(C)(C)C)c(C)c1` (centres unmarked) is lower in “% Inhibition @ 10 uM” value: 2.42% for the first, -4.24% for the second.

In the case of `Cc1ccc(C2C=C(c3ccc(OC(F)F)cc3)Nc3ncnn32)cc1` (centres unmarked), the “% Inhibition @ 10 uM” value is reported as 3.32%.
